Laboratory results reported in the supplement of paper PMC4894684.
Structures can show the parent of a compound that is named as a salt. ± gives the standard deviation of the averaged measurements. Hit rate of the full screen: of about 1,000 compounds, about 15 (2%) showed an effect of 50% or more. Some of the results follow.

System: HFF
Assay: uninfected host cell viability relative to vehicle control; higher = less host cell toxicity
Settings: 5 µM; 72 h; oxygen 21 %
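Further: confluent HFF monolayers, run in parallel with the Toxoplasma growth screen as a host toxicity counterscreen.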

Compound | uninfected host cell viability [%]
CS(=O)(=O)Nc1ccc(Cc2noc(-c3ccc4[nH]cc(CCN)c4c3)n2)cc1 | 90.2 ± 4.8
OC(Cc1ccncc1)C(Cl)(Cl)Cl (stereo not drawn) | 86 ± 7.1
C=CCN1CC[C@]23c4c5ccc(O)c4O[C@H]2C(=O)CC[C@@]3(O)[C@H]1C5 [Naloxone hydrochloride] | 88.71 ± 0.45
COc1ccc2[nH]cc(C3=CCNCC3)c2c1 | 80.7 ± 3.2
NP(N)(=O)NC(=O)c1ccc(F)cc1 [Flurofamide] | 100 ± 3.2
CCOC(=O)c1ncc2[nH]c3ccc(OCc4ccccc4)cc3c2c1COC | 103 ± 4.4
Clc1cccc(SC2CCNCC2)n1 [Anpirtoline hydrochloride] | 96.4 ± 2.5
c1ccc(CC(c2ccccc2)N2CCCCC2)cc1 (racemic) [(±)-1-(1,2-Diphenylethyl)piperidine maleate] | 89.8 ± 6.6
CN1[C@@H]2CC[C@H]1CC(OC(=O)N1Cc3ccccc3NC1=O)C2 (stereo partly drawn) [DAU 5884 hydrochloride] | 89.6 ± 2.4
Cc1onc(O)c1C[C@H](N)C(=O)O | 87.8 ± 1.2
CC(C)(C)OC(=O)c1ncn2c1[C@@H]1CCCN1C(=O)c1c(Br)cccc1-2 [Bretazenil] | 99.07 ± 0.6
O=C(O)CCC(CP(=O)(O)O)C(=O)O (stereo not drawn) [PMPA (NAALADase inhibitor)] | 86.7 ± 2.1
c1ccc(C2CC2)c(OCC2=NCCN2)c1 [Cirazoline hydrochloride] | 87 ± 1.4
C=C(C)CN1CC[C@@]23c4c5ccc(O)c4O[C@H]2c2[nH]c4ccccc4c2C[C@]3(O)C1C5 [SDM25N hydrochloride] | 90.3 ± 3.4
CC(C)NCC(O)c1ccc(N)c(C#N)c1 (stereo not drawn) [Cimaterol] | 84.5 ± 2.1
O=C(Cc1ccc(Cl)c(Cl)c1)N1CCCCC1CN1CCCC1 (stereo not drawn) | 98.36 ± 0.96
C#CCOC(=O)C1=CCCN(C)C1 [Arecaidine propargyl ester tosylate] | 87.1 ± 2.3
c1ccc(CCCN2CCN(CCOC(c3ccccc3)c3ccccc3)CC2)cc1 | 104 ± 4.1
CC(C)C[C@H]1C(=O)N2CCC[C@H]2[C@]2(O)O[C@](NC(=O)[C@@H]3C=C4c5cccc6[nH]c(Br)c(c56)C[C@H]4N(C)C3)(C(C)C)C(=O)N12 [Bromocriptine mesylate] | 83.8 ± 2.6
NCCc1c[nH]c2ccc(C(N)=O)cc12 [5-Carboxamidotryptamine maleate] | 91.33 ± 0.078
O=C(CCCN1CCC2(CC1)C(=O)N(Cc1cccc(F)c1)CN2c1ccccc1)c1ccc(F)cc1 [3'-Fluorobenzylspiperone maleate] | 78.9 ± 3.1
CN1CCN(c2ccc3ccccc3n2)CC1 [N-Methylquipazine dimaleate] | 84 ± 0.99
Clc1ccc(N2CCN(Cc3c[nH]c4ncccc34)CC2)cc1 [L-745,870 trihydrochloride] | 102 ± 3.9
